The list shows a part of the results. The full chains were built here from the parent and the listed change. Values near 0.05 are background.
B1: TEV protease; numbered along this chain (parent)
chain: MGESLFKGPRDYNPISSSICHLTNESDGHTTSLYGIGFGPFIITNKHLFRRNNGTLVVQSLHGVFKVKDTTTLQQHLVDGRDMIIIRMPKDFPPFPQKLKFREPQREERICLVTTNFQTKSMSSMVSDTSCTFPSGDGIFWKHWIQTKDGQCGSPLVSTRDGFIVGIHSASNFTNTNNYFTSVPKNFMELLTNQEAQQWVSGWRLNADSVLWGGHKVFMVKPEEPFQPVKEATQL

Variants of: B1
Experiment: raw area under fraction-flipped curve 0-4 h after induction (AUC4h, not background-subtracted), DNA-recorder readout of cleavage of the substrate (dimensionless); higher = more cleavage of the substrate by the protease variant
Conditions: temperature: 34 °C; time window: 0-4 h after rhamnose induction
Procedure: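 In vivo DNA recorder in E. coli TOP10(DE3) ΔrhaA at 34 °C. Each TEVp single-site mutant (parent TEVp 0) is paired with a single-site variant of the 7-mer TEVs (canonical ENLYFQ|S). The substrate sits between flexible linkers in a Bxb1-sfGFP-TEVs-SsrA fusion, so cleavage stabilises Bxb1 and speeds flipping of a recombination array, read by NGS. The value is the raw area under the fraction-flipped curve over 0-4 h after rhamnose induction (AUC4h), with ≥20 reads per time point. It is not background-subtracted; inactive controls average about 0.047.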
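Note: Bxb1 expression induced with 0.2% (w/v) L-rhamnose at OD600 near 0.5, cultures sampled hourly, flipped fraction per protease–substrate barcode pair counted by paired-end Illumina sequencing.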

Variant | area with substrate FNLYFQS | area with substrate HNLYFQS | area with substrate LNLYFQS | area with substrate WNLYFQS | area with substrate GNLYFQS | area with substrate INLYFQS | area with substrate KNLYFQS | area with substrate MNLYFQS | area with substrate PNLYFQS | area with substrate RNLYFQS
MGESLFKGPRDYNPISSSICHLTNESDGHTTSLYGIGFGPFIITNKHLFRRNNGTLVVQSLHGVFKVKDTTTLQQHLVDGRDMIIIRMPKDFPPFPWKLKFREPQREERICLVTTNFQTKSMSSMVSDTSCTFPSGDGIFWKHWIQTKDGQCGSPLVSTRDGFIVGIHSASNFTNTNNYFTSVPKNFMELLTNQEAQQWVSGWRLNADSVLWGGHKVFMVKPEEPFQPVKEATQL [Q97W] | 0.0675 | 0.0476 | 0.0713 | 0.0556 | – | – | – | – | – | –
MGESLFKGPRDYNPISSSICHLTNESDGHTTSLYGIGFGPFIITNKHLFRRNNGTLVVQSLHGVFKVKDTTTLQQHLVDGRDMIIIRMPKDFPPFPQRLKFREPQREERICLVTTNFQTKSMSSMVSDTSCTFPSGDGIFWKHWIQTKDGQCGSPLVSTRDGFIVGIHSASNFTNTNNYFTSVPKNFMELLTNQEAQQWVSGWRLNADSVLWGGHKVFMVKPEEPFQPVKEATQL [K98R] | 0.0652 | 0.0612 | 0.0749 | 0.0372 | 0.0673 | 0.0763 | 0.0748 | 0.0711 | 0.0792 | 0.0837
MGESLFKGPRDYNPISSSICHLTNESDGHTTSLYGIGFGPFIITNKHLFRRNNGTLVVQSLHGVFKVKDTTTLQQHLVDGRDMIIIRMPKDFPPFPQVLKFREPQREERICLVTTNFQTKSMSSMVSDTSCTFPSGDGIFWKHWIQTKDGQCGSPLVSTRDGFIVGIHSASNFTNTNNYFTSVPKNFMELLTNQEAQQWVSGWRLNADSVLWGGHKVFMVKPEEPFQPVKEATQL [K98V] | 0.0669 | 0.0721 | – | 0.0541 | – | 0.0607 | – | – | 0.0837 | –
MGESLFKGPRDYNPISSSICHLTNESDGHTTSLYGIGFGPFIITNKHLFRRNNGTLVVQSLHGVFKVKDTTTLQQHLVDGRDMIIIRMPKDFPPFPQKMKFREPQREERICLVTTNFQTKSMSSMVSDTSCTFPSGDGIFWKHWIQTKDGQCGSPLVSTRDGFIVGIHSASNFTNTNNYFTSVPKNFMELLTNQEAQQWVSGWRLNADSVLWGGHKVFMVKPEEPFQPVKEATQL [L99M] | 0.0474 | – | 0.0681 | – | – | – | 0.0726 | 0.0661 | – | –
MGESLFKGPRDYNPISSSICHLTNESDGHTTSLYGIGFGPFIITNKHLFRRNNGTLVVQSLHGVFKVKDTTTLQQHLVDGRDMIIIRMPKDFPPFPQKLKSREPQREERICLVTTNFQTKSMSSMVSDTSCTFPSGDGIFWKHWIQTKDGQCGSPLVSTRDGFIVGIHSASNFTNTNNYFTSVPKNFMELLTNQEAQQWVSGWRLNADSVLWGGHKVFMVKPEEPFQPVKEATQL [F101S] | 0.0315 | – | – | 0.0305 | – | 0.0581 | – | – | 0.0636 | 0.0506
MGESLFKGPRDYNPISSSICHLTNESDGHTTSLYGIGFGPFIITNKHLFRRNNGTLVVQSLHGVFKVKDTTTLQQHLVDGRDMIIIRMPKDFPPFPQKLKFRDPQREERICLVTTNFQTKSMSSMVSDTSCTFPSGDGIFWKHWIQTKDGQCGSPLVSTRDGFIVGIHSASNFTNTNNYFTSVPKNFMELLTNQEAQQWVSGWRLNADSVLWGGHKVFMVKPEEPFQPVKEATQL [E103D] | 0.0402 | – | – | 0.0607 | – | – | – | – | – | –
MGESLFKGPRDYNPISSSICHLTNESDGHTTSLYGIGFGPFIITNKHLFRRNNGTLVVQSLHGVFKVKDTTTLQQHLVDGRDMIIIRMPKDFPPFPQKLKFRMPQREERICLVTTNFQTKSMSSMVSDTSCTFPSGDGIFWKHWIQTKDGQCGSPLVSTRDGFIVGIHSASNFTNTNNYFTSVPKNFMELLTNQEAQQWVSGWRLNADSVLWGGHKVFMVKPEEPFQPVKEATQL [E103M] | 0.0608 | 0.0692 | – | 0.057 | – | 0.0543 | – | – | 0.0713 | –
MGESLFKGPRDYNPISSSICHLTNESDGHTTSLYGIGFGPFIITNKHLFRRNNGTLVVQSLHGVFKVKDTTTLQQHLVDGRDMIIIRMPKDFPPFPQKLKFRPPQREERICLVTTNFQTKSMSSMVSDTSCTFPSGDGIFWKHWIQTKDGQCGSPLVSTRDGFIVGIHSASNFTNTNNYFTSVPKNFMELLTNQEAQQWVSGWRLNADSVLWGGHKVFMVKPEEPFQPVKEATQL [E103P] | 0.0518 | 0.056 | – | – | – | 0.0522 | – | – | – | –
MGESLFKGPRDYNPISSSICHLTNESDGHTTSLYGIGFGPFIITNKHLFRRNNGTLVVQSLHGVFKVKDTTTLQQHLVDGRDMIIIRMPKDFPPFPQKLKFREPQREGRICLVTTNFQTKSMSSMVSDTSCTFPSGDGIFWKHWIQTKDGQCGSPLVSTRDGFIVGIHSASNFTNTNNYFTSVPKNFMELLTNQEAQQWVSGWRLNADSVLWGGHKVFMVKPEEPFQPVKEATQL [E108G] | 0.0575 | – | 0.0619 | – | 0.0463 | – | – | – | 0.0446 | –
MGESLFKGPRDYNPISSSICHLTNESDGHTTSLYGIGFGPFIITNKHLFRRNNGTLVVQSLHGVFKVKDTTTLQQHLVDGRDMIIIRMPKDFPPFPQKLKFREPQREEKICLVTTNFQTKSMSSMVSDTSCTFPSGDGIFWKHWIQTKDGQCGSPLVSTRDGFIVGIHSASNFTNTNNYFTSVPKNFMELLTNQEAQQWVSGWRLNADSVLWGGHKVFMVKPEEPFQPVKEATQL [R109K] | 0.0773 | – | – | 0.0423 | 0.0644 | – | – | – | 0.066 | 0.0432
MGESLFKGPRDYNPISSSICHLTNESDGHTTSLYGIGFGPFIITNKHLFRRNNGTLVVQSLHGVFKVKDTTTLQQHLVDGRDMIIIRMPKDFPPFPQKLKFREPQREERFCLVTTNFQTKSMSSMVSDTSCTFPSGDGIFWKHWIQTKDGQCGSPLVSTRDGFIVGIHSASNFTNTNNYFTSVPKNFMELLTNQEAQQWVSGWRLNADSVLWGGHKVFMVKPEEPFQPVKEATQL [I110F] | 0.0479 | 0.0518 | 0.0565 | 0.0477 | 0.0538 | 0.0634 | 0.0765 | 0.0494 | 0.0516 | –

Same assay, conditions: temperature: 34 °C; time window: 0-4 h after rhamnose induction

Variant | area with substrate TNLYFQS | area with substrate VNLYFQS | area with substrate YNLYFQS | area with substrate QNLYFQS | area with substrate SNLYFQS | area with substrate NNLYFQS
MGESLFKGPRDYNPISSSICHLTNESDGHTTSLYGIGFGPFIITNKHLFRRNNGTLVVQSLHGVFKVKDTTTLQQHLVDGRDMIIIRMPKDFPPFPQRLKFREPQREERICLVTTNFQTKSMSSMVSDTSCTFPSGDGIFWKHWIQTKDGQCGSPLVSTRDGFIVGIHSASNFTNTNNYFTSVPKNFMELLTNQEAQQWVSGWRLNADSVLWGGHKVFMVKPEEPFQPVKEATQL [K98R] | 0.0504 | 0.0564 | 0.0597 | – | – | –
MGESLFKGPRDYNPISSSICHLTNESDGHTTSLYGIGFGPFIITNKHLFRRNNGTLVVQSLHGVFKVKDTTTLQQHLVDGRDMIIIRMPKDFPPFPQVLKFREPQREERICLVTTNFQTKSMSSMVSDTSCTFPSGDGIFWKHWIQTKDGQCGSPLVSTRDGFIVGIHSASNFTNTNNYFTSVPKNFMELLTNQEAQQWVSGWRLNADSVLWGGHKVFMVKPEEPFQPVKEATQL [K98V] | – | – | – | 0.057 | 0.0668 | –
MGESLFKGPRDYNPISSSICHLTNESDGHTTSLYGIGFGPFIITNKHLFRRNNGTLVVQSLHGVFKVKDTTTLQQHLVDGRDMIIIRMPKDFPPFPQKMKFREPQREERICLVTTNFQTKSMSSMVSDTSCTFPSGDGIFWKHWIQTKDGQCGSPLVSTRDGFIVGIHSASNFTNTNNYFTSVPKNFMELLTNQEAQQWVSGWRLNADSVLWGGHKVFMVKPEEPFQPVKEATQL [L99M] | – | – | 0.0747 | – | – | 0.0525
MGESLFKGPRDYNPISSSICHLTNESDGHTTSLYGIGFGPFIITNKHLFRRNNGTLVVQSLHGVFKVKDTTTLQQHLVDGRDMIIIRMPKDFPPFPQKLKSREPQREERICLVTTNFQTKSMSSMVSDTSCTFPSGDGIFWKHWIQTKDGQCGSPLVSTRDGFIVGIHSASNFTNTNNYFTSVPKNFMELLTNQEAQQWVSGWRLNADSVLWGGHKVFMVKPEEPFQPVKEATQL [F101S] | – | – | – | – | – | 0.0449
MGESLFKGPRDYNPISSSICHLTNESDGHTTSLYGIGFGPFIITNKHLFRRNNGTLVVQSLHGVFKVKDTTTLQQHLVDGRDMIIIRMPKDFPPFPQKLKFRDPQREERICLVTTNFQTKSMSSMVSDTSCTFPSGDGIFWKHWIQTKDGQCGSPLVSTRDGFIVGIHSASNFTNTNNYFTSVPKNFMELLTNQEAQQWVSGWRLNADSVLWGGHKVFMVKPEEPFQPVKEATQL [E103D] | – | – | 0.0458 | – | – | –
MGESLFKGPRDYNPISSSICHLTNESDGHTTSLYGIGFGPFIITNKHLFRRNNGTLVVQSLHGVFKVKDTTTLQQHLVDGRDMIIIRMPKDFPPFPQKLKFRMPQREERICLVTTNFQTKSMSSMVSDTSCTFPSGDGIFWKHWIQTKDGQCGSPLVSTRDGFIVGIHSASNFTNTNNYFTSVPKNFMELLTNQEAQQWVSGWRLNADSVLWGGHKVFMVKPEEPFQPVKEATQL [E103M] | 0.0765 | 0.0558 | 0.0748 | – | 0.074 | –
MGESLFKGPRDYNPISSSICHLTNESDGHTTSLYGIGFGPFIITNKHLFRRNNGTLVVQSLHGVFKVKDTTTLQQHLVDGRDMIIIRMPKDFPPFPQKLKFRPPQREERICLVTTNFQTKSMSSMVSDTSCTFPSGDGIFWKHWIQTKDGQCGSPLVSTRDGFIVGIHSASNFTNTNNYFTSVPKNFMELLTNQEAQQWVSGWRLNADSVLWGGHKVFMVKPEEPFQPVKEATQL [E103P] | 0.0591 | 0.0749 | 0.0632 | – | – | –
MGESLFKGPRDYNPISSSICHLTNESDGHTTSLYGIGFGPFIITNKHLFRRNNGTLVVQSLHGVFKVKDTTTLQQHLVDGRDMIIIRMPKDFPPFPQKLKFREPQREEKICLVTTNFQTKSMSSMVSDTSCTFPSGDGIFWKHWIQTKDGQCGSPLVSTRDGFIVGIHSASNFTNTNNYFTSVPKNFMELLTNQEAQQWVSGWRLNADSVLWGGHKVFMVKPEEPFQPVKEATQL [R109K] | – | – | – | – | – | 0.0522
MGESLFKGPRDYNPISSSICHLTNESDGHTTSLYGIGFGPFIITNKHLFRRNNGTLVVQSLHGVFKVKDTTTLQQHLVDGRDMIIIRMPKDFPPFPQKLKFREPQREERFCLVTTNFQTKSMSSMVSDTSCTFPSGDGIFWKHWIQTKDGQCGSPLVSTRDGFIVGIHSASNFTNTNNYFTSVPKNFMELLTNQEAQQWVSGWRLNADSVLWGGHKVFMVKPEEPFQPVKEATQL [I110F] | 0.042 | 0.0655 | – | – | – | 0.0587

Reference: the supplement of paper PMC12217912
